Screen size: about 46,000 compounds; about 60 (0.1%) were called active. Roughly 3% stayed inconclusive and do not appear here. The call rests on the fitted dose curve; in most records, active means well fitted inhibition curve with a large enough effect; inconclusive means small, poorly fitted or top-dose-only effect; inactive means no such curve, though single readings can be large or run the other way. The list shows a part of the results.
Experiment: Primary qHTS assay for Inhibitors of ovarian cancer metastasis using an organotypic tumor microenvironment (TME) model. Further: nearly all actives have a fitted effect of over 65% in size.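 On activity change, negative = inhibition: plate controls were DMSO wells for no effect and tomatine positive control wells for full effect.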
Settings: SKOV3ip1-GFP adhesion/invasion on 3D omental model, fluorescence; series mostly up to 45.8 µM; activity change, negative = inhibition: at the top concentration
Outline: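 Adhesion/invasion was scored as fixed GFP-labeled SKOV3ip1 cell counts (488/509 nm), normalized to DMSO and tomatine controls. Cancer cells in serum-free medium, with four compound doses (0.36-46 umol/L), sat 2 hr at RT then 16 hr at 37 C on a 48 hr fibroblast/mesothelial/ECM culture.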

Row | Structure (SMILES) | activity change, negative = inhibition | outcome
1 | Cc1cccc(CCNC(=O)CCS(=O)(=O)c2cc3c(cc2Cl)NC(=O)CO3)c1 | inactive: -4.95% | 
2 | COc1ccc(C)cc1Nc1nc2ccccc2c2nnc(C)n12 | inactive: -1.92% | 
3 | CC(C)c1nc2ccc(C(=O)NCc3ccc(N(C)C)cc3)cc2o1 | inactive: -19.7% | 
4 | Cc1ccc(-n2nc3c(=O)n(CCCC(=O)NCCc4ccccc4)nc(C)c3c2C)cc1 | inactive: -11.8% | 
5 | CCOC(=O)[C@H](CCc1ccccc1)N[C@@H](C)C(=O)N1CCCC1C(=O)O (some centres undefined) | inactive: 0.298% | 
6 | Cc1ccc(C)n1-c1nnc(N2CCC(C(=O)NCc3ccc(F)cc3)CC2)s1 |  | inactive
7 | COc1ccccc1-c1noc(CSc2nnc(Cc3ccccc3)n2-c2ccc(C)c(C)c2)n1 | inactive: 1.86% | 
8 | CCOC(=O)c1c(N)n(-c2ccccc2CC)c2nc3ccccc3nc12 | inactive: 14.1% | 
9 | Cc1cc(NS(=O)(=O)c2ccc3nc(-c4ccccc4)[nH]c3c2)ccc1Br |  | inactive
10 | CC(C)C(=O)Nc1ccc2nc(SCC(=O)N3CCOCC3)sc2c1 | inactive: -1.71% | 
11 | Cc1cccc(NC(=O)CSc2nc3c(oc4ccccc43)c(=O)n2Cc2ccco2)c1 | inactive: 35.2% | 
12 | CCOc1ccc(CNC(=O)CCC(=O)N2CC3CCCN3c3ccccc32)cc1 (centres undefined) | inactive: 0.887% | 
13 | CCc1nc2cccnc2n1-c1ccc(CC(=O)Nc2ccccc2Cl)cc1 |  | inactive
14 | COc1ccc(Cl)cc1NC(=O)c1cc(S(=O)(=O)N2CCC(C)CC2)cn1C |  | inactive
15 | CCN1CCN(C(c2cccc(F)c2)c2c(O)cc(C)n(CCOC)c2=O)CC1 (centres undefined) |  | inactive
16 | O=S(=O)(c1ccc(Br)cc1)c1nnn2c1nc(NC1CCCCCC1)c1sccc12 | inactive: -5.19% | 
17 | Cc1ccc(N2CC(c3nnc(NC(=O)c4ccco4)s3)CC2=O)cc1Cl (centres undefined) | inactive: 2.6% | 
18 | O=C(O)c1cc(=O)[nH]c(=O)[nH]1 | inactive: -6.99% | 
19 | Cc1ccc(-n2nc3ccc(NC(=O)c4cc5ccccc5o4)cc3n2)cc1 | inactive: 23.8% | 
20 | Cn1c(=O)c2sccc2n2c(CCC(=O)N3CCN(c4ccccc4)CC3)nnc12 | inactive: 14.3% | 
21 | CCC(=O)Nc1sc2c(c1C(=O)Nc1ccccc1C)CCC(C)C2 (centres undefined) | inactive: -9.07% | 
22 | CCc1ccc(NC(=O)N2CCN(Cc3cc(=O)n4nc(-c5ccccc5OC)sc4n3)CC2)cc1 | inactive: 5.41% | 
23 | Cc1cccc(C)c1OCCCCn1c(C2CC(=O)N(c3ccc(F)cc3)C2)nc2ccccc21 (centres undefined) |  | inactive
24 | CCOC(=O)c1cccc(NC(=O)NCCc2c(C)nn(C)c2C)c1 | inactive: -1.18% | 
25 | COc1ccc2nc(NC(=O)c3ccc(S(=O)(=O)N4CCC(C)CC4)cc3)sc2c1 | inactive: 31.7% | 

Row | Structure (SMILES) | activity change, negative = inhibition | outcome
26 | COC(=O)c1ccccc1NC(=O)c1noc2c1CSc1ccccc1-2 |  | inactive
27 | CCC(Cc1ccccc1)NC(=O)c1oc(=O)c2ccccc2c1-c1ccccc1 (centres undefined) | inactive: 5.88% | 
28 | COc1ccc(-c2nc(CSCC(=O)NCCc3ccc(C)cc3)c(C)o2)cc1OC | inactive: 3.7% | 
29 | O=S(=O)(NCC(c1ccco1)N1CCN(c2ccc(F)cc2)CC1)c1ccccc1 (centres undefined) | inactive: 2.46% | 
30 | CCn1c(=N)c(C(=O)NCc2cccnc2)cc2c(=O)n3cc(C)ccc3nc21 | inactive: 41.3% | 
31 | COc1ccc(-c2cc(C(=O)Nc3cc(C)ccc3O)no2)cc1OC | inactive: 15% | 
32 | COC(=O)c1cc2occc2n1CC(=O)Nc1cccc(SC)c1 | inactive: -0.245% | 
33 | O=c1n(CCCN2CCN(c3cccc(Cl)c3)CC2)nc2ccccn12 | inactive: 8% | 
34 | Cc1c(C(=O)NCc2ccc(Cl)cc2)sc2nc3n(c(=O)c12)CCCC3 | inactive: -7.76% | 
35 | CCOc1ccc(CNC(=O)c2ccc(NC(=O)c3nsc4ccccc34)cc2)cc1 | inactive: 8.81% | 
36 | CCS(=O)(=O)c1ccccc1C(=O)N(Cc1cccnc1)c1nc2cc(C)c(C)cc2s1 | inactive: 1.33% | 
37 | CN(C(=O)CSc1nc2ccccc2n1CC(=O)NCc1ccc(F)cc1)c1ccc(F)cc1 | inactive: 4.53% | 
38 | CCc1noc2nc(C)n(CC(=O)O)c(=O)c12 | inactive: -0.659% | 
39 | CCOC(=O)Cn1cc2c(c1-c1ccc(Cl)cc1)c(=O)n(C)c(=O)n2C | inactive: 5.3% | 
40 | CCN(CC)CCCNC(=O)c1c(C)oc2ncnc(N3CCOCC3)c12 | inactive: -9.16% | 
41 | COc1ccccc1Cc1nc2ccccc2nc1SCC(=O)NCCc1ccccc1 |  | inactive
42 | CCCCN(Cc1ccccc1)S(=O)(=O)c1ccc2c(c1)CC(C)N2C(=O)CC (centres undefined) | inactive: -11.2% | 
43 | Cc1ccc(CNc2ncnc3c2c(-c2ccccc2)cn3-c2cccc(Cl)c2)cc1 | inactive: 1.05% | 
44 | COc1ccc(-c2nc3n(n2)C(c2ccccc2F)C(C(=O)Nc2cccnc2)=C(C)N3)cc1OC (centres undefined) | inactive: -4.51% | 
45 | Cc1ccc(-c2noc(CN(C3CCCCC3)S(=O)(=O)c3ccc(Cl)cc3)n2)cc1 | inactive: 0.988% | 
46 | c1ccc(C(c2cccs2)c2c[nH]c3ccccc23)cc1 (centres undefined) | inactive: -8.3% | 
47 | Cc1cccc(-n2c(=O)c3c(c4cc(C)ccc4n3C)n(CC(=O)Nc3ccccc3C(F)(F)F)c2=O)c1 | inactive: 0.314% | 
48 | O=C(Nc1ccc(F)c(Cl)c1)N1CCN2CCCCC2C1 (centres undefined) |  | inactive
49 | COc1ccc(C2CC(=O)c3c([nH]c(C(=O)OC4CCC(C)CC4)c3C)C2)cc1OC (centres undefined) | inactive: 1.94% | 

From PubChem BioAssay AID1963576 (National Center for Advancing Translational Sciences (NCATS), 2024)
